# Measurements taken from article PMC4336329 (PLoS ONE, 2015).
# About 14,000 (4.5%) of roughly 310,000 compounds showed an effect of 50% or more. The effect is printed as a negative number. Some of the results follow.
# Target: human ether-à-go-go-related gene (hERG) potassium channel (human, UniProt Q12809)
# Assay: primary screen, population patch clamp on CHO cells stably expressing hERG
# 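Note: peak tail current of the secondary pulse compared with the same well before compound.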
# Sequence of human ether-à-go-go-related gene (hERG) potassium channel (Q12809 whole entry, looked up): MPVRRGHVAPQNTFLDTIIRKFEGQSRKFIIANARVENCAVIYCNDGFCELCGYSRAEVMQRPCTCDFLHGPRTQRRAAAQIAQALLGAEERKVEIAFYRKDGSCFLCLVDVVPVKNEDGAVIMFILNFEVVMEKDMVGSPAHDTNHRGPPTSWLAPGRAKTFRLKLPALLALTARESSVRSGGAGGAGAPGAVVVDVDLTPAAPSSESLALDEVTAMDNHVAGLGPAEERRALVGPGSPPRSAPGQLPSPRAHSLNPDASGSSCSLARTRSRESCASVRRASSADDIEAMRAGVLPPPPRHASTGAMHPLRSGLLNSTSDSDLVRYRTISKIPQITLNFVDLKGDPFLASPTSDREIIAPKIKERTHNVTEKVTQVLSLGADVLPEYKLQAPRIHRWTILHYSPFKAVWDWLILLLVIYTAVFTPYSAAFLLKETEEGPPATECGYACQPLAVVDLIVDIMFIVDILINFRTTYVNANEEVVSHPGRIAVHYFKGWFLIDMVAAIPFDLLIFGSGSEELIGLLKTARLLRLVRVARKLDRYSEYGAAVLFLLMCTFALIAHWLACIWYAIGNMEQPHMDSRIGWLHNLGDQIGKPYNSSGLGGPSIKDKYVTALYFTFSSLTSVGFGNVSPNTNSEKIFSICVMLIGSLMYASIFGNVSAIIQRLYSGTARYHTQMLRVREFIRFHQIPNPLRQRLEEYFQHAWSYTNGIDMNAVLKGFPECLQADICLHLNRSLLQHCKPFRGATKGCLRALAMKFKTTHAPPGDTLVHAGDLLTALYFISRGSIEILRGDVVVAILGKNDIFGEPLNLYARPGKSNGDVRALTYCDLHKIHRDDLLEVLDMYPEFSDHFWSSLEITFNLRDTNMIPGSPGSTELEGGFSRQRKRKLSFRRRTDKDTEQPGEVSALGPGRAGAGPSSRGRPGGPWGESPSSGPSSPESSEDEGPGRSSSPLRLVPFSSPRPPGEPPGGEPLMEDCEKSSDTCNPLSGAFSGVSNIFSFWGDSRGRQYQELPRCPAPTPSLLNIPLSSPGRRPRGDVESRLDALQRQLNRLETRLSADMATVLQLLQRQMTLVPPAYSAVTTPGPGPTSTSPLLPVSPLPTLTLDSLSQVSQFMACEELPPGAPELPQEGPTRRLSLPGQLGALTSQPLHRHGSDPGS
row,Structure (SMILES),"hERG current change (%, negative = inhibition) at 10uM [%]"
1,CN=c1scc(C)n1/N=C/c1cc(Br)c(O)c(Br)c1,12.8
2,Cc1c(Cl)cccc1NC(=S)N(Cc1cccs1)C1CCCC1,12.8
3,COc1ccc(S(=O)(=O)CCC(=O)Nc2cc(C)ccc2OC)cc1,-1.49
4,COc1cc(/C=C2/SC(=S)N(c3ccccc3)C2=O)ccc1Oc1nc(N2CCOCC2)nc(N2CCOCC2)n1,1.38
5,CCCNC(=O)c1ccccc1NC(=O)CN(c1ccccc1)S(=O)(=O)N(C)C,-6.38
6,COc1cc2c3nnc(-c4ccccc4)c-3cn(Cc3ccc(F)cc3)c2cc1OC,-76.8
7,Cc1ccc(-n2c(=O)[nH]c3c(C(N)=O)nc(C(C)C)nc32)cc1,15.1
8,CCC1C(=O)C(C)(C)C(=O)OC1c1ccc([N+](=O)[O-])cc1 (centres unmarked),-7.26
9,Cc1ccc(Cn2c(CCNc3nc(-c4ccc(Cl)c([N+](=O)[O-])c4)cs3)nc3cc(Cl)c(Cl)cc32)cc1,-0.903
10,CCOC(=O)c1cc(-c2ccccc2)nc2nc(N(CC)CC)sc12,17.6
11,CCO[C@H]1OC(C(=O)NC2CC2)=C[C@@H](c2ccc(C(F)(F)F)cc2)[C@@H]1CCCO,-32.9
12,CC(C)CN(C(=O)COC(=O)c1ccccc1Sc1ccccc1C#N)C1CCS(=O)(=O)C1 (centres unmarked),2.75
13,COc1ccc(N2CCN(C(=O)c3ccc(-c4nc5ccccc5s4)o3)CC2)cc1,0.875
14,Cn1c(N)c(C(=O)COC(=O)CCc2nc3ccccc3s2)c(=O)n(C)c1=O,5.93
15,Cc1c(C(=O)Nc2ccccc2F)sc2ncn(CC(=O)N3CCCCC3)c(=O)c12,10.6
16,C=CCN(CC(O)c1cccc([N+](=O)[O-])c1)C(C)CCc1ccccc1.Cl (centres unmarked),-36.4
17,O=C(c1ccccc1)N1CCN(C2C3CC4CC(C3)CC2C4)CC1 (centres unmarked),-5.27
18,COc1ccc2[nH]cc(CCN)c2c1,17.9
19,O=C1CNC(=S)N1Cc1ccccc1Cl,6.14
20,CS(=O)(=O)N(CC(=O)N1CCN(Cc2ccc3c(c2)OCO3)CC1)Cc1ccc(Cl)cc1,-34.7
21,CCc1n[nH]c(=S)n1/N=C/c1ccc(NC(C)=O)cc1,13
22,N#Cc1cc2c(nc1SC1CCCCC1O)CCCC2 (centres unmarked),-12
23,COc1ccnc2c1c(=O)n(Cc1ccccc1Cl)c(=O)n2C,-0.81
